From PubChem BioAssay AID624417 (National Center for Advancing Translational Sciences (NCATS), 2012)
Screen size: about 410,000 compounds; about 6,400 (1.6%) were called active. The shares of active, inactive and inconclusive entries below differ from those in the screen. The call rests on the fitted dose curve; in most records, active means well fitted inhibition curve with a large enough effect; inconclusive means small, poorly fitted or top-dose-only effect; inactive means no such curve, though single readings can be large or run the other way. A potency beside an inconclusive call is a rough fit, not a confirmed value.

Target: Glucagon-like peptide 1 receptor (Homo sapiens) (UniProt P43220)
Experiment: qHTS of GLP-1 Receptor Inverse Agonists (Inhibition Mode); further: nearly all actives have a fitted effect of over 55% in size
Conditions: HEK293 GLP-1R CRE-luciferase, luminescence, 24 h, GLP-1R form is constitutively active; activity change, negative = inhibition: at 38.3 µM (top of the series) unless noted
Method in brief: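 Assay principle: reduced luminescence from a cAMP-responsive reporter in HEK293 cells co-expressing a constitutively active GLP-1R. Conditions: 24 hr compound incubation, 37 deg C, 5% CO2.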
On the % scale 0 is the no-effect control and ±100 the full control effect; potency means the concentration at half of the fitted maximal effect; tags describe the fitted curve by direction and shape.

UniProt P43220, sequence (P43220 whole entry, looked up): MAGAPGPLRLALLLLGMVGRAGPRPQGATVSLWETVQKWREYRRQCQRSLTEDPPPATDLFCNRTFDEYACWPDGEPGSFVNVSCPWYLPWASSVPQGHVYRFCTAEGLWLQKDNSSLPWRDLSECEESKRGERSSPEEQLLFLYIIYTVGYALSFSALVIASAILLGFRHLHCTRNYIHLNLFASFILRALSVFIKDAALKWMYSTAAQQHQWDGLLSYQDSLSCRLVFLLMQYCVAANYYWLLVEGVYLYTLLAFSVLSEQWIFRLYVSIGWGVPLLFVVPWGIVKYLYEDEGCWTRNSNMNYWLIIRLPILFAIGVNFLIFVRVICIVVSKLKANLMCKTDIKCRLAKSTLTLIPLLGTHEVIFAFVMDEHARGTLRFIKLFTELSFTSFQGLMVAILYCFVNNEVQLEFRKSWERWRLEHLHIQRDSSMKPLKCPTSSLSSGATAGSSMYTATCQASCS

Potency, inconclusive:
CCOC(=O)[C@@H]1CCN(Cc2ccccc2)C[C@H]1c1ccccc1 8.91 µM [inhibitor, partial curve, poor fit], Cc1cc(O)ccc1-c1cc(C(=O)NCc2cc(C(F)(F)F)cc(C(F)(F)F)c2)[nH]n1 22.4 µM [inhibitor, single point], Cc1cc2cc(C#N)c(NCCNC(=S)NCCCN3CCOCC3)nc2cc1C 11.2 µM [inhibitor, single point], CC1CC2(CCCC2)N(C(=O)c2ccccc2)Cc2ccccc21 (configuration not stated) 3.98 µM [inhibitor, partial curve, poor fit], CC(C)CNC(=O)c1ccccc1NC(=O)c1ccccc1N(C)S(=O)(=O)c1ccccc1 2.51 µM [inhibitor, partial curve, poor fit], COc1ccc(C(CNC(=O)c2cc3c(s2)CCC(C)C3)N2CCOCC2)cc1 (configuration not stated) 28.2 µM [inhibitor, single point], CCc1nc2c(OCc3cccc(Cl)c3)cccn2c1N(C)C(=O)C1CC1 28.2 µM [inhibitor, single point], COC(=O)c1cccc(Cn2c(Cl)c(/C=N/Nc3ccccc3C)sc2=O)c1 10 µM [inhibitor, partial curve, poor fit], Cc1c(C(=O)NCc2ccc(F)cc2)sc(=O)n1Cc1ccc(C(=O)c2ccccc2)cc1 28.2 µM [inhibitor, single point], Cn1cc(C(=O)N2CCCC(Nc3ccc(F)cc3)C2)c2ccccc21 (configuration not stated) 14.1 µM [inhibitor, partial curve, poor fit], NC(=S)N1OC[C@@H]2COc3ccc4ccccc4c3[C@@H]21 7.08 µM [inhibitor, partial curve, poor fit], OCC1(CCc2ccccc2)CCN(Cc2ccccc2Cl)CC1 11.2 µM [inhibitor, partial curve, poor fit], Cc1ccc(NC(=O)CCSc2nnnn2-c2ccc3c(c2)OCO3)cc1C 7.94 µM [inhibitor, partial curve, poor fit], COc1cccc(Cn2cnc(-c3ccccc3OC)c2C2CC2)c1 14.1 µM [inhibitor, single point], Clc1cccc(-c2ccc(CNCCSc3nnnn3-c3ccccc3)o2)c1 11.2 µM [inhibitor, partial curve, poor fit], CCCCOC(=O)Nc1nnc(CCc2ccccc2)s1 5.01 µM [inhibitor, full curve, poor fit], CCc1nc2ccc(C(=O)NCc3ccccc3OC)cn2c1N(CC)Cc1cccc(Br)c1 31.6 µM [inhibitor, partial curve, poor fit], COc1cccc(CNC(=O)c2ccc3c(c2)c(C)c(C)n3Cc2ccccc2)c1 8.91 µM [inhibitor, partial curve], COc1ccccc1-n1c(SCC(=O)c2ccc(O)cc2O)nc2cc([N+](=O)[O-])ccc21 28.2 µM [inhibitor, single point], NC(=O)C1CCN(C(=O)c2ccc(NC(=O)c3nsc4ccccc34)cc2)CC1 11.2 µM [inhibitor, partial curve], O=C(Nc1ccc(CSc2ccccc2)cc1)c1ccc(CN2CCOCC2)cc1 3.98 µM [inhibitor, partial curve, poor fit], CCOc1ccccc1NC(=O)C(OC(=O)c1ccccc1O)c1ccccc1 (configuration not stated) 11.2 µM [inhibitor, partial curve, poor fit], CCN(c1ccccc1)S(=O)(=O)c1c[nH]c2ccc([N+](=O)[O-])cc12 12.6 µM [inhibitor, partial curve, poor fit], COc1cc(Cl)c(C)cc1NC(=O)C1CCN(c2nc3ccccc3n3cccc23)CC1 7.08 µM [inhibitor, partial curve, poor fit], COc1ccc(-c2csc3ncn(-c4ccccc4OC)c(=O)c23)cc1OC 31.6 µM [inhibitor, single point], CCN(C(=O)COC(=O)c1cc(-c2ccccc2)nn1-c1ccccc1)C1CCS(=O)(=O)C1 (configuration not stated) 10 µM [inhibitor, partial curve, poor fit], CCc1cccc(C)c1NS(=O)(=O)c1c(C(=O)N2CCC(C)CC2)c(C)n(C)c1C 11.2 µM [inhibitor, single point], COc1ccc(-c2[nH]ncc2CN2CCC(OCc3ccccc3)CC2)c(F)c1 10 µM [inhibitor, single point], O=c1cc(CNc2cc(C(F)(F)F)cc(C(F)(F)F)c2)nc2sccn12 8.91 µM [inhibitor, partial curve, poor fit], O=C(O)c1cccc(C(=O)Nc2cccc(NC(=O)C3CCCO3)c2)c1 (configuration not stated) 5.62 µM [inhibitor, partial curve, poor fit], C#CC[N+](C)(C)CC#Cc1ccccc1 10 µM [inhibitor, partial curve, poor fit], COc1cc(C)c2sc3ccccc3c(=O)c2c1NCCN(C)C 28.2 µM [inhibitor, single point], CCN(CC)CCOc1ccc2c(c1)C(=NO)c1cc(OCCN(CC)CC)ccc1-2 8.91 µM [inhibitor, partial curve, poor fit], Cc1cc(N2CCOCC2)ccc1/C=C\[N+](=O)[O-] 22.4 µM [inhibitor, single point], O=C(Nc1ccc(Br)cc1)C1CCC(=O)N1Cc1ccccc1Cl (configuration not stated) 12.6 µM [inhibitor, partial curve, poor fit], CC(C)(C)NC(=O)C(c1ccccc1F)n1c(=O)c(-c2cc3ccccc3[nH]2)nc2ccccc21 (configuration not stated) 2.24 µM [inhibitor, full curve, poor fit], Cc1cccn2c(CN(C)C3CCCc4ccccc43)c(C(=O)N3CCOCC3)nc12 (configuration not stated) 28.2 µM [inhibitor, single point], COc1ccc(C2=NN(C(C#N)c3ccc(OC)c(OC)c3)C(c3ccccc3)C2)cc1 (configuration not stated) 11.2 µM [inhibitor, single point], CC(Sc1nnc(-c2cccs2)n1-c1ccccc1)C(=O)NCc1ccc2c(c1)OCO2 (configuration not stated) 14.1 µM [inhibitor, partial curve, poor fit], COc1cccc(C2C(C(=O)Nc3ccc(C)cc3C)=C(C)Nc3c(C(=O)Nc4ccccc4)cnn32)c1 (configuration not stated) 10 µM [inhibitor, partial curve], CCN(CC)C(=O)Oc1ccc(Br)cc1C(=O)Nc1ccc(F)cc1F 31.6 µM [inhibitor, single point], O=C(Nc1nnc(S(=O)(=O)N2CCCc3ccccc32)s1)c1cccc(Cl)c1 12.6 µM [inhibitor, partial curve, poor fit], CCCSc1ncc(Cl)c(C(=O)Nc2ccc(S(=O)(=O)N(C)c3ccccc3)cc2)n1 10 µM [inhibitor, partial curve, poor fit], O=C(CCCN1C(=O)S/C(=C\C=C\c2ccccc2)C1=O)Nc1ccc(O)cc1 10 µM [inhibitor, single point], O=C(NC(c1ccc(-c2ccccc2)cc1)c1cnccn1)C1CCN(Cc2cccc(C(F)(F)F)c2)CC1 (configuration not stated) 5.62 µM [inhibitor, full curve, poor fit], OCCCC1CCCCN1Cc1nc(Cc2ccccc2Cl)no1 (configuration not stated) 1.58 µM [inhibitor, partial curve, poor fit]

Potency, inactive:
CCOc1ccc2nc(CN3CCN(Cc4ccsc4)C(CCO)C3)ccc2c1 (configuration not stated), Cc1ccc(S(=O)(=O)N(Cc2ccccc2F)C(=O)N2CCN(C)CC2)cc1, O=C(O)c1cccc(-n2cccc2/C=C2/NC(=O)N(c3cccc(Cl)c3)C2=O)c1, O=C(c1ccccc1)N1CCN(CCc2ccncc2)CC1, CCOc1ccccc1N(CC)C(=O)Cn1ncc2c([nH]c3ccccc32)c1=O, Cc1ccc(C)c(NC(=O)N2CCN(C(=O)c3nsc4ccccc34)CC2)c1, O=C(CNC1CCN(Cc2ccccc2)CC1)Nc1ccc(S(=O)(=O)N2CCCCC2)cc1, CCOC(=O)C1CCCN(Cc2ccc3c(c2)OCO3)C1 (configuration not stated), CCOc1ccccc1-c1nc(CN2CCCN(C(=O)c3ccco3)CC2)c(C)o1, NC(=O)c1cccc2cc3ccccc3cc12, O=C(O)c1ccc(-c2nc(-c3ccc(Cl)cc3Cl)cs2)cc1, CC1CCCN(C(=O)CSc2c3c(nc4cc(Cl)ccc24)CCCC3)C1 (configuration not stated), CC(/C=C/c1ccc2c(c1)OCO2)=N\NC(=O)c1cccc([N+](=O)[O-])c1

Potency, active:
O=C(Nc1cccc(C(F)(F)F)c1)c1cccnc1N1CCCC1 11.2 µM, CCN(CC(=O)Nc1cc(S(=O)(=O)N2CCCCC2)ccc1Cl)Cc1ccccc1 5.62 µM

Activity change, negative = inhibition, inconclusive:
COC(=O)N1c2ccccc2CCc2ccccc21 -42.7% [inhibitor]
